Assay results published in publication PMC4336329 (PLoS ONE, 2015).
Out of some 310,000 compounds screened, about 2,200 (0.71%) showed an effect of 50% or more. The effect is printed as a negative number. Some of the results follow.

Each compound was assayed against human ether-à-go-go-related gene (hERG) potassium channel (human, UniProt Q12809) (assay: primary screen, population patch clamp on CHO cells stably expressing hERG).
Chain of human ether-à-go-go-related gene (hERG) potassium channel (Q12809 whole entry, looked up): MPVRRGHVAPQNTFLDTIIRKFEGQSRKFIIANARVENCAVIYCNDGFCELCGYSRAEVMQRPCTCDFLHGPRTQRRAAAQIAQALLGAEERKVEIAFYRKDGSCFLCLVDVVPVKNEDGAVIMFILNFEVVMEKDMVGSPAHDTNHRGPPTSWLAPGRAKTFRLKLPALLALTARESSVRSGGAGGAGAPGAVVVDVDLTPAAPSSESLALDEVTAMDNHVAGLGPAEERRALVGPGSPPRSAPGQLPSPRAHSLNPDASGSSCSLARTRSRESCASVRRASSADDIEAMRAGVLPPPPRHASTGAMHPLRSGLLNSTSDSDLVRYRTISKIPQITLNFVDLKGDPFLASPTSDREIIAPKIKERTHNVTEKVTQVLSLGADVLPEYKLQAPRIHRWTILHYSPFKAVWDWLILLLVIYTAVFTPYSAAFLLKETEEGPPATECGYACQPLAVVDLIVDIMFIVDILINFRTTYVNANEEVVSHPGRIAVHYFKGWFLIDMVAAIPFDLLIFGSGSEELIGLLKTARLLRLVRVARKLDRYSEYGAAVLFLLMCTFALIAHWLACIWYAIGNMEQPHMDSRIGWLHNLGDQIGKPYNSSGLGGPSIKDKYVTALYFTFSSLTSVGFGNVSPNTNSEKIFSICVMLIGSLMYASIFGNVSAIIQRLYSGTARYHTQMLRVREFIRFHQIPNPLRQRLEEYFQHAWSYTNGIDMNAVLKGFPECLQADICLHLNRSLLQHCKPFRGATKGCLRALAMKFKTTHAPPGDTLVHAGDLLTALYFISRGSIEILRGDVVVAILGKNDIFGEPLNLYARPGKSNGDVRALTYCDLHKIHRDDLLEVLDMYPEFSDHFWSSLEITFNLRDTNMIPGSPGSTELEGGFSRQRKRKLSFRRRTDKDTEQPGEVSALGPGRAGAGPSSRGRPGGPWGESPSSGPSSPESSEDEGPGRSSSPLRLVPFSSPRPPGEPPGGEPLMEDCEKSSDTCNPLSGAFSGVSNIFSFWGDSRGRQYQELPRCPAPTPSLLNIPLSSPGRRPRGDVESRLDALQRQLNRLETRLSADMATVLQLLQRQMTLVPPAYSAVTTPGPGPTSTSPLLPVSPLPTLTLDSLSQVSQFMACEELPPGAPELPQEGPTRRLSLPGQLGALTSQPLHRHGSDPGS

Compared with `COc1ccc2c(c1)c(C(C)=O)c(C)n2C`, `CC(=O)NCCc1nc2cc(NC(=O)COc3cccc(C)c3)ccc2n1C` is higher in “hERG current change (%, negative = inhibition) at 1uM” value: 8.11% for the first, 15% for the second.

Going from `CC1CN(C(=O)c2ccccc2OCc2ccccc2Cl)CC(C)O1` (stereo not drawn) to `Cc1noc(C)c1C(=O)N1CCN(c2ccc(OCc3ccccc3)cc2)CC1`, the “hERG current change (%, negative = inhibition) at 1uM” value rises from 6.64% to 11.3%.

Compared with `COc1cc2nc(CN(CCC(C)C)Cc3nc4cc(OC)c(OC)cc4c(=O)[nH]3)[nH]c(=O)c2cc1OC`, `COc1cc2c(cc1OC)/C(=C/C(=O)c1ccc(OC)c([N+](=O)[O-])c1)NCC2` is higher in “hERG current change (%, negative = inhibition) at 1uM” value: 4.31% for the first, 6.98% for the second.

Going from `O=C(NCCCN1CCOCC1)c1ccc(-n2nc(C(F)(F)F)cc2-c2cccs2)cc1` to `Cn1cc(/C=C(\NC(=O)c2ccccc2)C(=O)NCCCN2CCOCC2)c2ccccc21`, the “hERG current change (%, negative = inhibition) at 1uM” value rises from -15.8% to 16.7%.

First: CC(C)(C)NC(=O)Nc1ccc(Br)cc1
Second: CN(C(=O)c1ccc(NC(=O)c2ccco2)cc1)c1ccccc1
The “hERG current change (%, negative = inhibition) at 1uM” value of the first is higher: 2.4% for the first, 1.93% for the second.

Compared with `CCC/C(=N\NC(=O)Cc1csc(N2CCOCC2)n1)c1ccccc1`, `O=C(CSc1nnc(-c2ccccc2Cl)o1)N1CCOCC1` is higher in “hERG current change (%, negative = inhibition) at 1uM” value: 0.381% for the first, 8.93% for the second.

Going from `COC(=O)c1cc(NS(=O)(=O)c2ccc(N3CCCCCC3)c([N+](=O)[O-])c2)cc(C(=O)OC)c1` to `Cc1ccc(CNC(=O)C2CCN(S(=O)(=O)c3ccc4c(c3)CC(C)N4C(=O)C3CCC3)CC2)o1` (stereo not drawn), the “hERG current change (%, negative = inhibition) at 1uM” value rises from 7.92% to 14.1%.

First: CCN(CC)CCNS(=O)(=O)c1ccc(Cl)cc1.Cl
Second: CC1=C([N+](=O)[O-])C(c2ccc(Cl)cc2)NC(=O)N1 (stereo not drawn)
The “hERG current change (%, negative = inhibition) at 1uM” value of the first is lower: 6.58% for the first, 6.59% for the second.

Going from `COc1c2occc2c(OC)c2c(=O)cc(C(F)(F)F)oc12` to `COc1cc(NC(=S)Nc2ccccn2)c(OC)cc1Cl`, the “hERG current change (%, negative = inhibition) at 1uM” value falls from 12% to 5.62%.

Compared with `Cc1nnc(NC(=O)CSc2nccn2-c2cccc(C)c2C)s1`, `Cc1sc(NC(=O)CSc2nc(N)cc(N)n2)c(C#N)c1C` is higher in “hERG current change (%, negative = inhibition) at 1uM” value: 11.4% for the first, 13.6% for the second.

First: COc1cc(-c2cc(C(=O)Nc3ccccc3N3CCOCC3)c3ccccc3n2)cc(OC)c1OC
Second: COc1ccc(C(=O)N=C2CCC(C#N)=C3c4cc(OC)c(OC)cc4CCN23)cc1
The “hERG current change (%, negative = inhibition) at 1uM” value of the first is lower: 1.6% for the first, 10.4% for the second.

Compared with `Cc1csc(NC(=O)C2=NN(c3ccccc3)C(=O)CC2)n1`, `CSc1ncc(C(=O)Nc2ccccc2Cl)c(C)n1` is higher in “hERG current change (%, negative = inhibition) at 1uM” value: 9.03% for the first, 12.5% for the second.

Compared with `C=CCc1cc(Cl)ccc1OCCOCCNC(C)CC.O=C(O)C(=O)O` (stereo not drawn), `COc1ccc(Cl)cc1C(=O)NNC(=O)CCNC(C)=O` is higher in “hERG current change (%, negative = inhibition) at 1uM” value: -19.1% for the first, 20.8% for the second.

Going from `COc1ccc(S(=O)(=O)N2CCSCC2)cc1C(N)=O` to `COC(=O)c1ccc(S(=O)(=O)N2Cc3ccccc3C2)cc1`, the “hERG current change (%, negative = inhibition) at 1uM” value falls from 19.9% to 9.51%.

Compared with `Cc1ccc(C)c(Cn2c(=O)n(CCCC(=O)NCc3ccco3)c(=O)c3sccc32)c1`, `O=C(CCSc1ccccc1)NCCSCc1ccco1` is higher in “hERG current change (%, negative = inhibition) at 1uM” value: -10.2% for the first, 11.3% for the second.

First: O=S(=O)(c1ccccc1)N1CCN(c2ccnc3cc(Cl)ccc23)CC1
Second: O=[N+]([O-])c1ccc(N2CCN(S(=O)(=O)c3ccccc3[N+](=O)[O-])CC2)cc1NCc1cccnc1
The “hERG current change (%, negative = inhibition) at 1uM” value of the first is lower: -79.9% for the first, 7.4% for the second.

Going from `Cc1nnn(C23CC4CC(CC(C4)C2)C3)n1` to `CC1CCCN(Cc2c(O)ccc3c4c(c(=O)oc23)CCCC4)C1` (stereo not drawn), the “hERG current change (%, negative = inhibition) at 1uM” value falls from 7.15% to 5.16%.

Going from `COCCn1c(SCC#N)nnc1-c1ccccc1` to `Nc1ccc2c(c1)nnn2-c1ccccc1`, the “hERG current change (%, negative = inhibition) at 1uM” value rises from 2.89% to 7.29%.

First: CN(CC(=O)Nc1cccc2ccccc12)C(=O)c1ccc(F)cc1F
Second: N#Cc1nc(Cc2cccc3ccccc23)oc1NCc1ccc(F)cc1
The “hERG current change (%, negative = inhibition) at 1uM” value of the first is higher: 9.11% for the first, 6.63% for the second.

Going from `O=C(N/N=C\c1ccc(F)cc1)c1csnn1` to `COC(=O)N/N=C/c1ccc(-c2ccc(Cl)cc2Cl)o1`, the “hERG current change (%, negative = inhibition) at 1uM” value rises from 5.64% to 12.9%.

Compared with `CCC1CCCCN1C(=O)COC(=O)c1cc(C)nc2ccccc12` (stereo not drawn), `COCC(C)n1c(C)cc(C(=O)COC(=O)CCc2nc3ccccc3c(=O)[nH]2)c1C` (stereo not drawn) is higher in “hERG current change (%, negative = inhibition) at 1uM” value: 4.54% for the first, 7.24% for the second.

First: O=C(Nc1nnc(C2=COCCO2)o1)c1ccc(Cc2ccccc2)cc1
Second: Cc1ccc(NS(=O)(=O)c2ccc(C)c(NC(=O)COc3ccccc3)c2)c(C)c1
The “hERG current change (%, negative = inhibition) at 1uM” value of the first is lower: -0.929% for the first, 8.62% for the second.

Going from `C=CCOC(=O)C1CC=CCC1C(=O)Oc1ccc(F)cc1F` (stereo not drawn) to `COc1ccc(Cl)cc1NC(=O)CN(C)C1CCS(=O)(=O)C1` (stereo not drawn), the “hERG current change (%, negative = inhibition) at 1uM” value falls from 8.43% to 8.35%.

First: CCCCCCSc1nsc(NC(=O)CC(C)C)n1
Second: CN(C)CCCOc1nc2c(c(=O)n(C)c(=O)n2C)n1C.Cl
The “hERG current change (%, negative = inhibition) at 1uM” value of the first is lower: -6.26% for the first, 10.2% for the second.

Compared with `COc1ccc(C(=O)/C=C/c2ccc(O)cc2)c(O)c1CC=C(C)C`, `CCn1cnc2cc(NS(=O)(=O)c3ccc(OC)c(OC)c3)ccc21` is higher in “hERG current change (%, negative = inhibition) at 1uM” value: 6.04% for the first, 14.1% for the second.

First: Cc1cccc2c1-c1sc(C(=O)Nc3cccnc3)cc1CO2
Second: CC1=C(C(=O)Nc2ccccc2C)C(c2ccc(C)o2)NC(=S)N1 (stereo not drawn)
The “hERG current change (%, negative = inhibition) at 1uM” value of the first is higher: 18.7% for the first, 15.9% for the second.

First: NC(=O)CC(NC(=O)c1ccccc1)c1ccc(NCCCN2CCCC2=O)c([N+](=O)[O-])c1 (stereo not drawn)
Second: O=P(NS(=O)(=O)c1ccccc1)(Oc1ccccc1)Oc1ccccc1
The “hERG current change (%, negative = inhibition) at 1uM” value of the first is higher: 3.91% for the first, -0.657% for the second.

Going from `O=C(Cn1cnc(S(=O)(=O)N2CCOCC2)c1)Nc1ccc(OC(F)(F)F)cc1` to `CC1=CC(=O)N(c2ccn(C)n2)C1=O`, the “hERG current change (%, negative = inhibition) at 1uM” value falls from 19.2% to 11.6%.

In the case of `CC(=NCCO)c1c(O)n(C)c(=O)n(C)c1=O`, the “hERG current change (%, negative = inhibition) at 1uM” value is reported as 15.2%.
